# Measured values published in the supplement of paper PMC12217912.
# This is one part of the list. The full chains were built here from the parent and the listed change. Inactive controls read about 0.05.
# B1: TEV protease; numbered along this chain (parent)
# chain: MGESLFKGPRDYNPISSSICHLTNESDGHTTSLYGIGFGPFIITNKHLFRRNNGTLVVQSLHGVFKVKDTTTLQQHLVDGRDMIIIRMPKDFPPFPQKLKFREPQREERICLVTTNFQTKSMSSMVSDTSCTFPSGDGIFWKHWIQTKDGQCGSPLVSTRDGFIVGIHSASNFTNTNNYFTSVPKNFMELLTNQEAQQWVSGWRLNADSVLWGGHKVFMVKPEEPFQPVKEATQL
# Variants of: B1
# Experiment: raw area under fraction-flipped curve 0-4 h after induction (AUC4h, not background-subtracted), DNA-recorder readout of cleavage of the substrate (dimensionless); higher = more cleavage of the substrate by the protease variant
# Details: temperature: 34 °C; time window: 0-4 h after rhamnose induction
# Procedure: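 In vivo DNA recorder in E. coli TOP10(DE3) ΔrhaA at 34 °C. Each TEVp single-site mutant (parent TEVp 0) is paired with a single-site variant of the 7-mer TEVs (canonical ENLYFQ|S). The substrate sits between flexible linkers in a Bxb1-sfGFP-TEVs-SsrA fusion, so cleavage stabilises Bxb1 and speeds flipping of a recombination array, read by NGS. The value is the raw area under the fraction-flipped curve over 0-4 h after rhamnose induction (AUC4h), with ≥20 reads per time point. It is not background-subtracted; inactive controls average about 0.047.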
# 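Note: Bxb1 expression induced with 0.2% (w/v) L-rhamnose at OD600 near 0.5, cultures sampled hourly, flipped fraction per protease–substrate barcode pair counted by paired-end Illumina sequencing.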
variant,measurement,value
I85Q,area with substrate ENCYFQS,0.0575
same,area with substrate ENEYFQS,0.0509
same,area with substrate ENIYFQS,0.0499
same,area with substrate ENKYFQS,0.0575
same,area with substrate ENNYFQS,0.0528
same,area with substrate ENPYFQS,0.045
same,area with substrate ENQYFQS,0.0676
same,area with substrate ENSYFQS,0.0619
same,area with substrate ENTYFQS,0.0544
same,area with substrate ENWYFQS,0.0385
I85N,area with substrate ENAYFQS,0.0505
same,area with substrate ENCYFQS,0.0423
same,area with substrate ENDYFQS,0.0257
same,area with substrate ENEYFQS,0.0332
same,area with substrate ENFYFQS,0.0454
same,area with substrate ENHYFQS,0.0462
same,area with substrate ENMYFQS,0.061
same,area with substrate ENNYFQS,0.0496
same,area with substrate ENPYFQS,0.0412
same,area with substrate ENQYFQS,0.0484
same,area with substrate ENRYFQS,0.0482
same,area with substrate ENSYFQS,0.0394
same,area with substrate ENTYFQS,0.0557
same,area with substrate ENVYFQS,0.0336
R87M,area with substrate ENCYFQS,0.0799
same,area with substrate ENMYFQS,0.0881
same,area with substrate ENPYFQS,0.0558
same,area with substrate ENQYFQS,0.0477
same,area with substrate ENSYFQS,0.0368
same,area with substrate ENTYFQS,0.053
same,area with substrate ENYYFQS,0.101
F163G,area with substrate ENCYFQS,0.0708
same,area with substrate ENDYFQS,0.0615
same,area with substrate ENQYFQS,0.0703
P9T,area with substrate ENCYFQS,0.0631
same,area with substrate ENDYFQS,0.065
same,area with substrate ENIYFQS,0.0786
same,area with substrate ENRYFQS,0.0461
same,area with substrate ENSYFQS,0.0641
F101P,area with substrate ENCYFQS,0.0533
same,area with substrate ENDYFQS,0.0408
same,area with substrate ENEYFQS,0.0363
same,area with substrate ENFYFQS,0.0507
same,area with substrate ENGYFQS,0.0432
same,area with substrate ENHYFQS,0.0447
same,area with substrate ENIYFQS,0.0607
same,area with substrate ENQYFQS,0.0359
same,area with substrate ENSYFQS,0.0404
same,area with substrate ENTYFQS,0.053
same,area with substrate ENVYFQS,0.0487
same,area with substrate ENYYFQS,0.0412
F101G,area with substrate ENAYFQS,0.0543
same,area with substrate ENCYFQS,0.0548
same,area with substrate ENEYFQS,0.051
same,area with substrate ENFYFQS,0.0556
same,area with substrate ENGYFQS,0.0487
same,area with substrate ENPYFQS,0.0392
same,area with substrate ENQYFQS,0.0499
same,area with substrate ENTYFQS,0.0564
same,area with substrate ENVYFQS,0.042
W199K,area with substrate ENAYFQS,0.0546
same,area with substrate ENCYFQS,0.0556
same,area with substrate ENDYFQS,0.0583
same,area with substrate ENEYFQS,0.0693
same,area with substrate ENGYFQS,0.0678
same,area with substrate ENHYFQS,0.0616
same,area with substrate ENIYFQS,0.0667
same,area with substrate ENKYFQS,0.0451
same,area with substrate ENMYFQS,0.0813
same,area with substrate ENPYFQS,0.0637
same,area with substrate ENQYFQS,0.0664
same,area with substrate ENRYFQS,0.0495
W141D,area with substrate ENCYFQS,0.0482
same,area with substrate ENDYFQS,0.049
same,area with substrate ENEYFQS,0.0548
same,area with substrate ENGYFQS,0.0325
same,area with substrate ENNYFQS,0.058
same,area with substrate ENQYFQS,0.0345
same,area with substrate ENSYFQS,0.0608
same,area with substrate ENYYFQS,0.0359
W141L,area with substrate ENCYFQS,0.0563
same,area with substrate ENDYFQS,0.0828
same,area with substrate ENEYFQS,0.0559
same,area with substrate ENHYFQS,0.055
same,area with substrate ENKYFQS,0.0501
same,area with substrate ENQYFQS,0.0559
same,area with substrate ENRYFQS,0.05
same,area with substrate ENTYFQS,0.0538
N178L,area with substrate ENCYFQS,0.0684
same,area with substrate ENDYFQS,0.0497
same,area with substrate ENEYFQS,0.0646
same,area with substrate ENKYFQS,0.0916
same,area with substrate ENMYFQS,0.0775
same,area with substrate ENPYFQS,0.0379
same,area with substrate ENRYFQS,0.0583
same,area with substrate ENSYFQS,0.0646
same,area with substrate ENVYFQS,0.0872
A196P,area with substrate ENCYFQS,0.0606
same,area with substrate ENFYFQS,0.0427
same,area with substrate ENMYFQS,0.0938
same,area with substrate ENQYFQS,0.0709
same,area with substrate ENSYFQS,0.0516
same,area with substrate ENTYFQS,0.0448
same,area with substrate ENVYFQS,0.0686
F180T,area with substrate ENCYFQS,0.049
same,area with substrate ENDYFQS,0.0399
same,area with substrate ENEYFQS,0.0594
same,area with substrate ENHYFQS,0.0423
same,area with substrate ENIYFQS,0.049
same,area with substrate ENKYFQS,0.0476
same,area with substrate ENNYFQS,0.0571
same,area with substrate ENPYFQS,0.0521
same,area with substrate ENQYFQS,0.0537
A232I,area with substrate ENCYFQS,0.0681
same,area with substrate ENDYFQS,0.0564
same,area with substrate ENFYFQS,0.0647
same,area with substrate ENIYFQS,0.106
same,area with substrate ENKYFQS,0.0653
same,area with substrate ENQYFQS,0.0562
F117Y,area with substrate ENCYFQS,0.0693
same,area with substrate ENDYFQS,0.0605
same,area with substrate ENEYFQS,0.0475
same,area with substrate ENFYFQS,0.0629
same,area with substrate ENGYFQS,0.0458
same,area with substrate ENMYFQS,0.0454
same,area with substrate ENNYFQS,0.0574
same,area with substrate ENRYFQS,0.0137
same,area with substrate ENSYFQS,0.0516
same,area with substrate ENTYFQS,0.0563
same,area with substrate ENWYFQS,0.0491
P228I,area with substrate ENCYFQS,0.0741
same,area with substrate ENRYFQS,0.0522
same,area with substrate ENSYFQS,0.109
same,area with substrate ENVYFQS,0.0666
N193F,area with substrate ENCYFQS,0.0609
same,area with substrate ENDYFQS,0.055
same,area with substrate ENEYFQS,0.058
same,area with substrate ENGYFQS,0.0618
same,area with substrate ENHYFQS,0.0757
same,area with substrate ENMYFQS,0.0815
same,area with substrate ENNYFQS,0.0528
same,area with substrate ENSYFQS,0.0574
same,area with substrate ENTYFQS,0.0725
same,area with substrate ENVYFQS,0.0664
V210A,area with substrate ENCYFQS,0.0691
same,area with substrate ENDYFQS,0.0624
same,area with substrate ENEYFQS,0.0608
same,area with substrate ENGYFQS,0.0709
same,area with substrate ENKYFQS,0.0747
same,area with substrate ENQYFQS,0.0592
same,area with substrate ENSYFQS,0.0326
same,area with substrate ENTYFQS,0.0457
same,area with substrate ENWYFQS,0.0434
N116G,area with substrate ENCYFQS,0.079
same,area with substrate ENDYFQS,0.0588
same,area with substrate ENFYFQS,0.0646
same,area with substrate ENGYFQS,0.0691
same,area with substrate ENIYFQS,0.158
same,area with substrate ENKYFQS,0.0521
same,area with substrate ENQYFQS,0.0613
same,area with substrate ENSYFQS,0.0562
same,area with substrate ENTYFQS,0.0745
same,area with substrate ENVYFQS,0.0803
